Reference: the antibiotic and cytotoxicity screens of Wong et al. (2023)
This is one part of the list.

System: HepG2
Test: cytotoxicity call (relative viability < 0.9)
Settings: 10 µM

SMILES | cytotoxicity call
O=c1[nH]nc(N2CCSCC2)[nH]1 | inactive
C[C@H]1CN([C@@H](C)CO)C(=O)c2c(c3ccccc3n2C)-c2ccccc2CO[C@@H]1CN(C)S(=O)(=O)c1cn(C)cn1 | inactive
C[C@@H]1CCCCO[C@@H](CN(C)C(=O)NC2CCCCC2)[C@H](C)CN([C@@H](C)CO)C(=O)c2cc(NS(=O)(=O)c3ccc(Cl)cc3)ccc2O1 | inactive
CC(C)NC(=O)Nc1ccc2c(c1)CC(=O)N([C@@H](C)CO)C[C@H](C)[C@H](CN(C)C(=O)NC1CCCCC1)O2 | inactive
Cc1noc(C)c1NC(=O)N(C)C[C@@H]1Oc2ccc(NS(=O)(=O)c3cccs3)cc2CC(=O)N([C@@H](C)CO)C[C@H]1C | inactive
C[C@@H]1CCCCO[C@H](CN(C)S(=O)(=O)c2ccc(Cl)cc2)[C@H](C)CN([C@@H](C)CO)C(=O)c2cc(NC(=O)Nc3ccc(C(F)(F)F)cc3)ccc2O1 | inactive
C[C@H](CO)N1C[C@H](C)[C@@H](CN(C)S(=O)(=O)c2cn(C)cn2)OCCCC[C@H](C)Oc2ccc(N(C)C)cc2C1=O | inactive
C[C@@H]1CN([C@@H](C)CO)C(=O)c2cccc(NC(=O)Nc3ccccc3)c2O[C@@H]1CN(C)S(C)(=O)=O | inactive
O=c1nc[nH]c2nn(-c3ccccc3)nc12 | inactive
C[C@@H]1CN([C@H](C)CO)C(=O)c2cc(NS(C)(=O)=O)ccc2O[C@H]1CN(C)S(=O)(=O)c1ccccc1 | inactive
COc1ccc(S(=O)(=O)Nc2ccc3c(c2)C(=O)N([C@@H](C)CO)C[C@H](C)[C@H](CN(C)S(C)(=O)=O)O3)cc1 | inactive
